Source: PMC4499112
Changes are numbered by the printed parent chain. These are yes or no findings as the source states them, for the method shown. In cells and extracts the contact can be indirect. Some binding calls cover weakened binding; strength is not graded here. Sequences can lack the tags named with a protein.

How the values were obtained:
FLAG-Rab3B^Q81L (rat) = target: T1, FLAG-Rab3B^Q81L (rat) (UniProt Q63941); test: pull-down; FLAG-Rab3B mutants from HEK293T cells immobilised on anti-FLAG-antibody agarose beads, washed, incubated 2 h with whole-cell lysate of basal or insulin-stimulated rat adipocytes; high-salt elution; immunoblot for Noc2; only the target purified
T1 sequence: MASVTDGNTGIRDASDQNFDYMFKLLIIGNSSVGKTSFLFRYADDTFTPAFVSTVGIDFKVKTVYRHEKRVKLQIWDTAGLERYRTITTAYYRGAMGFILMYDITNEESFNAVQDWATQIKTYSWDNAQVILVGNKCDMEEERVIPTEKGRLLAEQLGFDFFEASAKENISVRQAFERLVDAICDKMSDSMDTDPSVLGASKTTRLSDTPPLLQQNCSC

FLAG-Rab3B^T36N (rat) = target: T2, FLAG-Rab3B^T36N (rat) (UniProt Q63941); test: as above
T2 sequence: T1 sequence with T36N, L81Q

GST-Noc2 WT [1] = target: T3, GST-Noc2 WT (UniProt O54880); test: pull-down; GST-Noc2 WT or AAA on glutathione beads; lysate of rat adipocytes expressing FLAG-Rab3B, loaded with GTPγS; anti-FLAG immunoblot; only the target purified
T3 sequence: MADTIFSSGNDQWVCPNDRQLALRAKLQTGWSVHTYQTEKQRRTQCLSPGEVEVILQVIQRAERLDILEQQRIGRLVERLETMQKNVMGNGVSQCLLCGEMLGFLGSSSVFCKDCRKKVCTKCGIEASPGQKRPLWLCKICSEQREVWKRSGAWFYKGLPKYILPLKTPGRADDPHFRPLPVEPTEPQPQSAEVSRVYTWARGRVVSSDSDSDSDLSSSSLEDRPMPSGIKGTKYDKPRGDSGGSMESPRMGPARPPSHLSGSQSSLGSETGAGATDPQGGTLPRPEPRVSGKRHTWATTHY

GST-Noc2^AAA = target: T4, GST-Noc2^AAA (UniProt O54880); test: as above
T4 sequence: T3 sequence with W154A, F155A, Y156A

GST-Noc2 WT [2] = target: T3, GST-Noc2 WT; test: pull-down; GST-Noc2 WT on glutathione beads or MBP-Noc2 WT on amylose beads; lysate of basal or insulin-treated (also wortmannin before insulin) rat adipocytes overexpressing FLAG-Rab3B, 2 h at 4°C; anti-FLAG immunoblot; only the target purified
[3] = target: T5, maltose-binding protein (MBP)-Noc2 WT (UniProt O54880); test: as above
T5 sequence: T3 sequence

B1: Noc2 (endogenous, rat adipocytes) (protein, UniProt O54880 1-302)
chain: T3 sequence
B1 was tested, and the binding (FLAG-Rab3B^Q81L (rat)) was “no binding” and the binding (FLAG-Rab3B^T36N (rat)) was “binds”.

B2: FLAG-Rab3B (wild type) (protein, UniProt Q63941 1-219)
chain: T1 sequence with L81Q
B2 was tested, and the binding (GST-Noc2 WT [1]) was “binds”, the binding (GST-Noc2^AAA) was “no binding” and the binding (GST-Noc2 WT [2]) was “binds”. For the same binder, the binding [3] was “binds”.
